Experimental data: article PMC6367215
These are yes or no findings as the source states them, for the method shown. In cells and extracts the contact can be indirect. Some entries that bind do so weakly or less than the wild type.

The chains behind the UniProt entries cited, without tags or fusion partners.
UniProt O96013: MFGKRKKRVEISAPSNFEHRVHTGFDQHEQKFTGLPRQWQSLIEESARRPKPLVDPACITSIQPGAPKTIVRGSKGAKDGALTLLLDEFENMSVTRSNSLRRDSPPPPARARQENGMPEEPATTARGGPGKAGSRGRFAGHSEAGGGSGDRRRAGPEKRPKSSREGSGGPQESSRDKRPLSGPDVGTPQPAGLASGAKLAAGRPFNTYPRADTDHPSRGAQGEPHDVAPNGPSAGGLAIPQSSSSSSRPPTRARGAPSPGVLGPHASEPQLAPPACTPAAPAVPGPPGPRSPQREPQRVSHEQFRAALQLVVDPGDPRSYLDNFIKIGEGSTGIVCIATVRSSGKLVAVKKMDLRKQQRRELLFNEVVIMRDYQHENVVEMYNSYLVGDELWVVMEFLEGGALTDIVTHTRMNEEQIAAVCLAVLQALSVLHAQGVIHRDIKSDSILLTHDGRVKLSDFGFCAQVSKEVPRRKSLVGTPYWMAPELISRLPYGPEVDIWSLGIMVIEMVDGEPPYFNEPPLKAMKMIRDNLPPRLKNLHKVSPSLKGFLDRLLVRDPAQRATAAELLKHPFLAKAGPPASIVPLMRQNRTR
UniProt P03372: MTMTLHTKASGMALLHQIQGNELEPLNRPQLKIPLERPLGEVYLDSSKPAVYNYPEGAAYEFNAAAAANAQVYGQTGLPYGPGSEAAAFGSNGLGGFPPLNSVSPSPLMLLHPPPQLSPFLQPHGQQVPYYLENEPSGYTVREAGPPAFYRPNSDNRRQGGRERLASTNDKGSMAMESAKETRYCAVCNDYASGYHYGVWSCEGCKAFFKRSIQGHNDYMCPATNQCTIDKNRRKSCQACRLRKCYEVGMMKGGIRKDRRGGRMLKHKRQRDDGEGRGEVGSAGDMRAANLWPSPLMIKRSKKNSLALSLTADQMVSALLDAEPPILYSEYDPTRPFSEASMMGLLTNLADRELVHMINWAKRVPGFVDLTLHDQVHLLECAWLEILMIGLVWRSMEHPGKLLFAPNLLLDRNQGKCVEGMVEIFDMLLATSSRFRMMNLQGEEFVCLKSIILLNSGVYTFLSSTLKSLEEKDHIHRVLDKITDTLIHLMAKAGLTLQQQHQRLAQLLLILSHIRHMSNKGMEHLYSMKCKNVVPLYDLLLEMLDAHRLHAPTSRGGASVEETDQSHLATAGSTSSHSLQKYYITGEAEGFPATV
UniProt Q13547: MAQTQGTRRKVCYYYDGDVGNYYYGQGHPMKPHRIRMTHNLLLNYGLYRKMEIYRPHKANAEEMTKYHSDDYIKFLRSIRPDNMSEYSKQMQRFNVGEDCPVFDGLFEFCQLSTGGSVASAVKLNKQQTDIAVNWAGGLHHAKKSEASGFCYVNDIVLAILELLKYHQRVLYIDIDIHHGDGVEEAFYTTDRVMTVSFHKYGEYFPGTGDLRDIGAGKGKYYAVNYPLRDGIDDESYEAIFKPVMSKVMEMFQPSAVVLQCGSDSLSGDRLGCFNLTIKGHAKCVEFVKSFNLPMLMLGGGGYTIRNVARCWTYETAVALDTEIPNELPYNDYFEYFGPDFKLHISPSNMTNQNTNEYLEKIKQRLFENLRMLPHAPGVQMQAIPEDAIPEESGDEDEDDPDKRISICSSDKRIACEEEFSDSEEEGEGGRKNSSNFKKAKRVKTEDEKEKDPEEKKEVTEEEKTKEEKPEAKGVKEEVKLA

Columns and labels:
GST-PAK4 (human) = GST-PAK4 (human) (UniProt O96013); assay: pull-down; GST or GST-fusion proteins on glutathione-conjugated Sepharose beads incubated with proteins transcribed and translated in vitro; bound proteins detected by auto-radiography; only the target purified
[1] = biological target: p21-activated kinase 4 (PAK4), endogenous (human (endogenous in MCF-7 and ZR-75-30)) (UniProt O96013); assay: co-IP; endogenous proteins in MCF-7 cells (Supplementary Figure 3b)
[2] = biological target: PAK4, exogenous in HEK 293T cells (human) (UniProt O96013); assay: co-IP; exogenous proteins in HEK 293T cells (Supplementary Figure 3a)
GST-ERα (human) = GST-ERα (human) (UniProt P03372); assay: pull-down; GST or GST-fusion proteins on glutathione-conjugated Sepharose beads incubated with proteins transcribed and translated in vitro; bound proteins detected by auto-radiography; only the target purified
[3] = biological target: p21-activated kinase 4 (PAK4), endogenous (human (endogenous in MCF-7 and ZR-75-30)) (UniProt O96013); assay: condition: only cytoplasmic extracts of MCF-7 cells treated with E2 (10^-9 M) for 45 min; co-IP; cytoplasmic fraction of MCF-7 cells treated with E2 (10^-9 M) for 45 min
[4] = biological target: p21-activated kinase 4 (PAK4), endogenous (human (endogenous in MCF-7 and ZR-75-30)) (UniProt O96013); assay: co-IP; nuclear fraction of MCF-7 cells treated with E2 (10^-9 M) for 45 min
[5] = biological target: p21-activated kinase 4 (PAK4), endogenous (human (endogenous in MCF-7 and ZR-75-30)) (UniProt O96013); assay: co-IP; MCF-7 cells without E2 stimulation (Supplementary Figure S2)
[6] = biological target: p21-activated kinase 4 (PAK4), endogenous (human (endogenous in MCF-7 and ZR-75-30)) (UniProt O96013); assay: co-IP; MCF-7 and ZR-75-30 cell lysates immunoprecipitated with PAK4 antibodies or IgG; endogenous ERα and PAK4 detected by immunoblot

ERα, transcribed and translated in vitro (from UniProt P03372 1-595) (receptor)
binding (GST-PAK4 (human)): binds

HDAC1, endogenous (from UniProt Q13547 1-482) (enzyme)
binding [1]: binds

HDAC1, exogenous in HEK 293T cells (from UniProt Q13547 1-482) (enzyme)
binding [2]: binds

PAK4, transcribed and translated in vitro (from UniProt O96013 1-591) (enzyme)
binding (GST-ERα (human)): binds

estrogen receptor alpha (ERα), endogenous (from UniProt P03372 1-595)
binding [3]: no binding | binding [4]: binds | binding [5]: no binding (condition: without E2 stimulation) | binding [6]: binds
